Paper PMC6451091
The other results are listed elsewhere or left out. For part of these data: At the low end of the ranking the order means little. For part of these data: Measured with an extract: partners may take part in the binding.

Target: PU.1 (IVT) (UniProt P17947)
Assay: protein-binding microarray (PBM)
Conditions: 20 mM HEPES pH 7.9, 100 mM NaCl, 1 mM DTT, 0.2 mg/mL BSA, 0.02% Triton X-100, 2% milk, 0.4 mg/mL salmon testes DNA; 1 h; temperature not stated; high values mean tight binding; double strand, one strand shown; sequences stand for … in GCCTAGCAC…GTGCTAGGTCTTGATTCGCTTGACGCTGCTG

Sequence	binding signal [z-score]
TGAAAGCCAGAGAGGGCAGG	-0.273
GGAGGAAGTCTTGAGGTGTT	1.33
AATTTTTTGTATTTTTAGTA	-0.205
AAGGTGACTGCCTGAAACTT	-0.442
CAGGAACAAGGAGCATGCTT	0.599
TTCCTCACAGTGAGGAAGAG	5.03
TCCTCAGTCTGGCTGAGTGA	-0.578
TGGAAAACTGCGTGAAACCA	-0.784
ACACTCCCACTAGTGCCATG	-0.274
GAGAAGGCCAAACCCTGGGG	-0.808
GAGAGGAGAAAAGGAACGTG	0.502
ACATTTGTTCACTATTAACT	0.282
CCCAGAGCTGCGTGAAACCA	-0.491
CTGGCAGCTGCCTGAAACTC	-0.536
AAATGTCCCCTGTGGCAACA	-0.341
CAGGGCCATTCCCAGGAAAA	-0.753
AGCTTTAAGAGCCAGTGCTC	-0.158
GCAGGCAGGGCTGTACCAGG	-0.58
AACTAAATTAAACCACACCA	0.114
CCACAAAGATCTTGTGGGTA	0.145

Sequence	binding signal [z-score]
TTAATAACATCTTCCCCAAC	0.658
GGCCACGTTACTTTCTGCCC	-0.698
GTCTTATTTCCTCAAAATAG	3.55
ACCAATGGGCGTGGGGGAGG	0.158
ATACTCCACCCCTTTCTCAA	-0.0234
CTGACTTTGGGTGACAGGCT	-0.506
ACCAACCCCCAGTCTCCCGA	-0.739
TGTCACAAATCCATCACTGA	0.291
TTAGTAACCTGCAAGCACTT	-0.17
AGTCAGCCTGGTGGCCTTCT	-0.729
TGACGACTTTTCAGCTAGAC	-0.42
AGTTAACTAAAACAGTACGG	-0.0403
CACTTTCAGGGCCCCTGCTG	-0.716
GGAAGGCCTGCGTGAAAGCA	-0.707
TCAGTGGGGAAAGAATGATC	0.135
TGGCGCTGTGCAGACTTGGC	-0.704
GGGCAAGTCAGTTAATCTTG	-0.211
ACGTATGGAAAAACACAGAT	-0.0282
AAGGTTCTAGAGATCTATTG	-0.628
GCCCCCTCCAGTCCCCGCCC	1.18

Target: PU.1 (endogenous, THP-1 nuclear extract) (UniProt P17947)
Assay: nuclear extract protein-binding microarray (nextPBM)
Conditions: 20 mM HEPES pH 7.9, 100 mM NaCl, 1 mM DTT, 0.2 mg/mL BSA, 0.02% Triton X-100, 2% milk, 0.4 mg/mL salmon testes DNA; 1 h; temperature not stated; high values mean tight binding; double strand, one strand shown; sequences stand for … in GCCTAGCAC…GTGCTAGGTCTTGATTCGCTTGACGCTGCTG

Sequence	binding signal [z-score]
TGAAAGCCAGAGAGGGCAGG	-0.417
GGAGGAAGTCTTGAGGTGTT	1.37
AATTTTTTGTATTTTTAGTA	-0.618
AAGGTGACTGCCTGAAACTT	-0.433
CAGGAACAAGGAGCATGCTT	0.579
TTCCTCACAGTGAGGAAGAG	5.69
TCCTCAGTCTGGCTGAGTGA	-0.203
TGGAAAACTGCGTGAAACCA	-0.81
ACACTCCCACTAGTGCCATG	-0.112
GAGAAGGCCAAACCCTGGGG	0.0959
GAGAGGAGAAAAGGAACGTG	0.262
ACATTTGTTCACTATTAACT	-0.142
CCCAGAGCTGCGTGAAACCA	-0.487
CTGGCAGCTGCCTGAAACTC	-0.606
AAATGTCCCCTGTGGCAACA	-0.276
CAGGGCCATTCCCAGGAAAA	-0.199
AGCTTTAAGAGCCAGTGCTC	-0.37
GCAGGCAGGGCTGTACCAGG	-0.332
AACTAAATTAAACCACACCA	-0.0179
CCACAAAGATCTTGTGGGTA	-0.0349

Sequence	binding signal [z-score]
TTAATAACATCTTCCCCAAC	0.664
GGCCACGTTACTTTCTGCCC	-0.185
GTCTTATTTCCTCAAAATAG	2.68
ACCAATGGGCGTGGGGGAGG	0.000911
ATACTCCACCCCTTTCTCAA	-0.6
CTGACTTTGGGTGACAGGCT	-0.228
ACCAACCCCCAGTCTCCCGA	0.162
TGTCACAAATCCATCACTGA	-0.2
TTAGTAACCTGCAAGCACTT	-0.137
AGTCAGCCTGGTGGCCTTCT	-0.442
TGACGACTTTTCAGCTAGAC	-0.567
AGTTAACTAAAACAGTACGG	-0.292
CACTTTCAGGGCCCCTGCTG	-0.294
GGAAGGCCTGCGTGAAAGCA	-0.401
TCAGTGGGGAAAGAATGATC	-0.0653
TGGCGCTGTGCAGACTTGGC	-0.29
GGGCAAGTCAGTTAATCTTG	-0.507
ACGTATGGAAAAACACAGAT	-0.216
AAGGTTCTAGAGATCTATTG	-0.466
GCCCCCTCCAGTCCCCGCCC	-0.54

Target: T1, FLI1 (endogenous, THP-1 nuclear extract) (UniProt Q01543)
T1 sequence: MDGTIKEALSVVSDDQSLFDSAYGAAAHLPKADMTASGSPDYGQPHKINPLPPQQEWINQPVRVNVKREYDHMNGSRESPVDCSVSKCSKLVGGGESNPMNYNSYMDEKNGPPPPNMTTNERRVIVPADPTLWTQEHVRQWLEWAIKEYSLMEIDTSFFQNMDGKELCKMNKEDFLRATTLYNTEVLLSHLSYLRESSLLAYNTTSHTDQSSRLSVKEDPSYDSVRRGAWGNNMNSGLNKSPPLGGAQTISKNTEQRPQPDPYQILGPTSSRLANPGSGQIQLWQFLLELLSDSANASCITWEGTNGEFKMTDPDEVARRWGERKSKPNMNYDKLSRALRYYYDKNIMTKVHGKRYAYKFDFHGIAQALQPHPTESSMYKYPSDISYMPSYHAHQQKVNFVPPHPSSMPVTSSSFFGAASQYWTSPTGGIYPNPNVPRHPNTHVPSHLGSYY
Assay: as above
Conditions: 20 mM HEPES pH 7.9, 100 mM NaCl, 1 mM DTT, 0.2 mg/mL BSA, 0.02% Triton X-100, 2% milk, 0.4 mg/mL salmon testes DNA; 1 h; temperature not stated; high values mean tight binding; double strand, one strand shown; sequences stand for … in GCCTAGCAC…GTGCTAGGTCTTGATTCGCTTGACGCTGCTG

Sequence	binding signal [z-score]
TGAAAGCCAGAGAGGGCAGG	-0.0299
GGAGGAAGTCTTGAGGTGTT	1.66
AATTTTTTGTATTTTTAGTA	0.0986
AAGGTGACTGCCTGAAACTT	-0.343
CAGGAACAAGGAGCATGCTT	0.145
TTCCTCACAGTGAGGAAGAG	3.04
TCCTCAGTCTGGCTGAGTGA	0.0282
TGGAAAACTGCGTGAAACCA	0.0119
ACACTCCCACTAGTGCCATG	-0.585
GAGAAGGCCAAACCCTGGGG	-1.03
GAGAGGAGAAAAGGAACGTG	0.0798
ACATTTGTTCACTATTAACT	-0.381
CCCAGAGCTGCGTGAAACCA	-0.599
CTGGCAGCTGCCTGAAACTC	-0.275
AAATGTCCCCTGTGGCAACA	-0.58
CAGGGCCATTCCCAGGAAAA	0.841
AGCTTTAAGAGCCAGTGCTC	-1.29
GCAGGCAGGGCTGTACCAGG	-0.597
AACTAAATTAAACCACACCA	0.0688
CCACAAAGATCTTGTGGGTA	-0.818

Sequence	binding signal [z-score]
TTAATAACATCTTCCCCAAC	0.441
GGCCACGTTACTTTCTGCCC	-0.47
GTCTTATTTCCTCAAAATAG	1.39
ACCAATGGGCGTGGGGGAGG	-0.702
ATACTCCACCCCTTTCTCAA	-0.356
CTGACTTTGGGTGACAGGCT	0.0363
ACCAACCCCCAGTCTCCCGA	-0.862
TGTCACAAATCCATCACTGA	-0.524
TTAGTAACCTGCAAGCACTT	-0.463
AGTCAGCCTGGTGGCCTTCT	-0.48
TGACGACTTTTCAGCTAGAC	-0.55
AGTTAACTAAAACAGTACGG	-0.551
CACTTTCAGGGCCCCTGCTG	-0.482
GGAAGGCCTGCGTGAAAGCA	0.621
TCAGTGGGGAAAGAATGATC	-0.0399
TGGCGCTGTGCAGACTTGGC	-0.966
GGGCAAGTCAGTTAATCTTG	0.15
ACGTATGGAAAAACACAGAT	-0.285
AAGGTTCTAGAGATCTATTG	-0.205
GCCCCCTCCAGTCCCCGCCC	-0.334
